# Assay results published in the supplement of paper PMC4166925.
# ± gives the standard deviation of the averaged measurements. Whole data set: some 33,000 sequences, median “E-score (dimensionless, -0.5 to 0.5)” near -0.049, cut for the highest 2% near 0.37. The list shows a part of the results.
# Tested on: T1, PmTbr T-box DNA-binding domain (GST fusion)
# T1 sequence: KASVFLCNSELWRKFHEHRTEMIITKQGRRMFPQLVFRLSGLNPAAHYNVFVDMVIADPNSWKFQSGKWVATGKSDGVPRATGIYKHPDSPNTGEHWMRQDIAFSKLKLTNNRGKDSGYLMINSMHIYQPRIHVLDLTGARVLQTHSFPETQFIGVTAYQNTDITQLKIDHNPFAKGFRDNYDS
# Experiment: PBM E-score of 8-mer (E-score (dimensionless, -0.5 to 0.5)); Tbr is Tbrain of the sea star Patiria miniata (Pm) or the sea urchin Strongylocentrotus purpuratus (Sp); higher = stronger binding preference; most listed sequences are background and not binding sites
# Conditions: the construct has about 5 more residues each side
# Experimental: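 Universal protein-binding microarray (Agilent AMADID 016060, 60-bp probes with a 35-bp variable region) incubated with 200 nM GST-fused Patiria miniata Tbr T-box DNA-binding domain (residues 272-466) in PBS pH 7.5. Scored for every ungapped 8-mer (given with its reverse complement) by the Universal PBM Analysis Suite as E-score (modified Wilcoxon-Mann-Whitney enrichment, range -0.5 to 0.5; >0.45 counts as bound) and Z-score of median probe intensity. Two replicate arrays (datasets 1 and 2).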
# 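Note: 200 nM protein in PBS on universal arrays averaged over duplicate arrays.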
row,Sequence,PBM E-score of 8-mer
1,CGAACGAA,-0.0608 ± 0.029
2,CTAAGCAA,-0.00553 ± 0.0064
3,GTTTAGTA,-0.296 ± 0.038
4,AAGCTCTG,-0.103 ± 0.041
5,ACGAATTG,0.0628 ± 0.039
6,TAACAGCA,0.0236 ± 0.041
7,GCTGAGGA,-0.00513 ± 0.026
8,ACGGTTAG,0.0117 ± 0.068
9,AATCCGAG,-0.00826 ± 0.0078
10,AGGAATGC,-0.169 ± 0.021
11,AACAGCAC,0.2 ± 0.036
12,CTTTGACC,-0.263 ± 0.033
13,GGCCTTGA,-0.238 ± 0.0033
14,TCTTTCAA,-0.299 ± 0.037
15,GCATCGGA,-0.132 ± 0.0095
16,CGGATTCA,-0.111 ± 0.0065
17,ACGTACCA,-0.142 ± 0.042
18,AATCTCTC,-0.0609 ± 0.011
19,ACCACTCG,0.12 ± 0.008
20,CCCTCCTC,-0.0552 ± 0.0098
21,GTAGTGGA,-0.185 ± 0.077
22,AGTCTTTG,-0.141 ± 0.0091

row,Sequence,PBM E-score of 8-mer
1,AAATAAGT,0.0179 ± 0.086
2,ATAGCAGC,0.074 ± 0.021
3,ACCCTAGC,-0.0107 ± 0.082
4,ATACATAC,-0.0984 ± 0.025
5,ATGCACGA,-0.134 ± 0.0081
6,CACAAACC,-0.224 ± 0.032
7,AACTACAT,0.049 ± 0.06
8,ACTTCTAT,-0.0949 ± 0.087
9,CCTCCAGG,-0.169 ± 0.059
10,CTCAGGAC,-0.2433 ± 0.0019
11,CATCTCTA,-0.175 ± 0.028
12,AAGAACCG,-0.0764 ± 0.1
13,ACATTCCT,-0.213 ± 0.043
14,CCCCCAAG,0.0726 ± 0.017
15,AGCCGAAC,-0.0977 ± 0.032
16,CCAGCACG,0.145 ± 0.06
17,GACCGCAA,-0.161 ± 0.0043
18,GCGGTTCA,0.139 ± 0.0094
19,GCAACCTA,0.164 ± 0.079
20,CGCCGATC,-0.0804 ± 0.0053
21,TGGGACAA,-0.177 ± 0.023
22,GCCAAAAA,0.00317 ± 0.045

row,Sequence,PBM E-score of 8-mer
1,ATAAACAC,0.282 ± 0.015
2,ACGAACAG,-0.00353 ± 0.037
3,GCACCGCC,0.199 ± 0.0052
4,ACGATCTG,0.189 ± 0.015
5,AGCAGGGC,-0.334 ± 0.019
6,CGCCCTGA,0.0727 ± 0.07
7,CTGGTATC,-0.133 ± 0.075
8,GCATGAAA,-0.0616 ± 0.032
9,GATCGGTA,-0.239 ± 0.081
10,AAGACATT,-0.203 ± 0.097
11,ACATGGAG,-0.0937 ± 0.003
12,GAGCTCCA,-0.196 ± 0.058
13,ACAAGTGT,0.391 ± 0.0052
14,ATAATTAA,-0.0595 ± 0.049
15,AGCATCAC,0.156 ± 0.031
16,GAGTGGCA,0.162 ± 0.039
17,AGTCTCAA,0.112 ± 0.006
18,ACTACCTG,0.068 ± 0.035
19,GTACACAC,0.1571 ± 0.0012
20,ACAAGGCA,-0.0748 ± 0.072
21,CAGCCACG,0.163 ± 0.02
22,AAACTCTT,-0.11 ± 0.032

row,Sequence,PBM E-score of 8-mer
1,GACAAGGA,-0.0231 ± 0.00054
2,CTAGTGCC,0.0785 ± 0.032
3,GTGGCGGA,0.12 ± 0.065
4,CCTTGGAA,-0.127 ± 0.028
5,AGGATACA,-0.03 ± 0.075
6,AATCCGTC,-0.0859 ± 0.021
7,CGAAGAAG,0.0353 ± 0.021
8,GAACGGGA,-0.0661 ± 0.028
9,ACCCAAGC,-0.1565 ± 0.00039
10,AGAAATCC,-0.0401 ± 0.039
11,AGGGATTA,-0.213 ± 0.073
12,CCTGAGCA,-0.037 ± 0.096
13,ACTACCAC,0.0023 ± 0.012
14,ACCGTCGA,0.11 ± 0.014
15,ATTGAGAA,-0.00564 ± 0.042
16,GGCGTAAA,0.19 ± 0.025
17,ACCTGTCG,0.355 ± 0.035
18,CGTCGAAG,0.0448 ± 0.016
19,AGTGGTAA,0.121 ± 0.067
20,CGTCCATC,-0.237 ± 0.022
